# According to the supplement of paper PMC11283458:
# The list shows a part of the results. Repeats are few or missing, and single values can be far off.
# Columns and labels:
# [1] = system: Mef2d microexon dual Nano/Firefly luciferase splicing reporter in Neuro-2a cells; assay: B-score of Firefly/Nano luminescence ratio, V1 Mef2d microexon reporter (B-score (plate-normalised)); higher = more Mef2d microexon inclusion; conditions: 24 h
# [2] = system: Mef2d microexon dual Nano/Firefly luciferase splicing reporter in Neuro-2a cells; assay: B-score of Nano/Firefly luminescence ratio, V2 Mef2d microexon reporter (B-score (plate-normalised)); higher = more Mef2d microexon inclusion; conditions: 24 h
# 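Wherever B-score of Nano/Firefly luminescence ratio, V2 Mef2d microexon reporter is given: compounds at 4 µM (PKI library 0.5 µM) on Dox-inducible N2A Flp-In cells with PEST-tagged luciferases, 384-well plates, B-score from per-plate median-polish residual over median absolute residual.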
compound,measurement,setting,value
N#CC1=C(N)Oc2ccc3ccccc3c2C1c1cccc(F)c1 (centres undefined) (4 µM),B-score,[1],-8.07
same,B-score,[2],-11
CC1=C/C(=N\OS(=O)(=O)c2ccccc2)C(C(C)C)=CC1=O (4 µM),B-score,[1],-0.863
same,B-score,[2],-5.28
COc1cc(OC)c(C(=O)CCCCN2CCC3(CC2)NC(=O)NC3=O)cc1NS(=O)(=O)c1ccc(C(F)(F)F)cc1 (4 µM),B-score,[1],12.9
same,B-score,[2],3.06
Cc1cc(I)ccc1N1C(=O)C=CC1=O (4 µM),B-score,[1],5.23
same,B-score,[2],3.53
O=C(Nc1ccc(Cl)c(Cl)c1)n1ccc(C(F)(F)F)n1 (4 µM),B-score,[1],15.6
same,B-score,[2],-0.001
O=C1NC(=O)/C(=C/c2ccc3nccc(-c4ccncc4)c3c2)S1 (0.5 µM),B-score,[1],-8.82
same,B-score,[2],-1.54
CSc1c(C#N)c(-c2cccs2)nn1CNC(=O)Nc1cc(C(F)(F)F)cc(C(F)(F)F)c1 (4 µM),B-score,[1],5.57
same,B-score,[2],5.32
COc1ccc(-c2nn(-c3ccccc3)cc2CNCCc2ccccc2)cc1 (4 µM),B-score,[1],-8.94
same,B-score,[2],-8.21
O=C(C=C(C(=O)c1ccccc1)c1ccccc1)c1ccc2c(c1)OCCO2 (4 µM),B-score,[1],-4.57
same,B-score,[2],-2.36
Cc1ccc(NC(=O)CC2Sc3ccccc3NC2=O)c([N+](=O)[O-])c1 (centres undefined) (4 µM),B-score,[1],2.19
same,B-score,[2],3.62
N#CC(C#N)=CC=C(Sc1ncc(C(F)(F)F)cc1Cl)c1ccc(Cl)cc1 (4 µM),B-score,[1],7.6
same,B-score,[2],2.39
COc1cc2nccc(Oc3ccc(NC(=O)Nc4cc(C)on4)c(Cl)c3)c2cc1OC (0.5 µM),B-score,[1],7.46
same,B-score,[2],8.95
COc1cc2c(cc1OC)CN(C(=O)c1ccc(OCC(F)(F)F)nc1)CC2 (4 µM),B-score,[1],-20.6
same,B-score,[2],-4.63
CN(C)S(=O)(=O)c1ccc2c(c1)C(=C(C#N)C#N)c1cc(S(=O)(=O)N(C)C)ccc1-2 (4 µM),B-score,[1],-5.73
same,B-score,[2],-2.18
COc1cc2c(cc1OC)-c1[nH]nc(Nc3cccc(F)c3)c1C2 (0.5 µM),B-score,[1],-6.53
same,B-score,[2],-4.66
CC1=NNC(=O)/C1=N\Nc1ccc(Br)cc1 (4 µM),B-score,[1],2.02
same,B-score,[2],18
CN1CCc2nc(NC(=O)c3csc(COc4ccc(Cl)cc4)n3)sc2C1 (4 µM),B-score,[1],-1.76
same,B-score,[2],-6.55
CN(C)S(=O)(=O)c1ccc2c(c1)/C(=C/c1cc3c([nH]1)CCCC3)C(=O)N2 (0.5 µM),B-score,[1],7.32
same,B-score,[2],2.02
Cc1cccc(NC(=O)Nc2ccc(C#N)cc2)n1 (4 µM),B-score,[1],5.18
same,B-score,[2],4.48
COc1ccc(C(=O)ON=C(N)COc2ccc(Cl)cc2Cl)cc1 (4 µM),B-score,[1],-10.8
same,B-score,[2],-0.684
CC(C)(C)C(=O)C(=Cc1cccc([N+](=O)[O-])c1)n1cncn1 (4 µM),B-score,[1],-7.11
same,B-score,[2],-6.45
COc1ccc(NC(=O)CSC(=O)c2c(-c3c(Cl)cccc3Cl)noc2C)cc1 (4 µM),B-score,[1],-6.93
same,B-score,[2],-8.29
O=C(Nc1ccc2[nH]nc(-c3ccncc3)c2c1)[C@@H]1CCN(CC(=O)N2CCN(c3ccc(-c4ncccn4)cc3)CC2)C1 (0.5 µM),B-score,[1],8.88
same,B-score,[2],6.16
O=C(Nc1ccc(F)cc1)Nc1ccc(Br)c(C(F)(F)F)c1 (4 µM),B-score,[1],2.22
same,B-score,[2],1.29
Cc1oc2c(F)c(F)c(F)c(F)c2c1C(=O)ONC(N)c1ccc(OS(=O)(=O)N(C)C)cc1 (centres undefined) (4 µM),B-score,[1],7.37
same,B-score,[2],5.14
CCOc1ccn(-c2ccc(F)cc2)c(=O)c1C(=O)Nc1ccc(Oc2ccnc(N)c2Cl)c(F)c1 (0.5 µM),B-score,[1],9.96
same,B-score,[2],2.6
N#C/C(=C\Nc1cc(C(F)(F)F)cc(C(F)(F)F)c1)S(=O)(=O)c1cccs1 (4 µM),B-score,[1],-4.68
same,B-score,[2],-5.44
C=CCSc1nnc(-c2ccc(C(C)(C)C)cc2)n1-c1ccc(Cl)cc1 (4 µM),B-score,[1],5.4
same,B-score,[2],2.69
C=CCn1c(C)cc(C(=O)COn2nnc3ccc(Cl)cc32)c1C (4 µM),B-score,[1],-6.49
same,B-score,[2],-4.88
Cc1cccc(C)c1N=C=Nc1c(C)cccc1C (4 µM),B-score,[1],-3.13
same,B-score,[2],-7.89
Cc1noc(C)c1C(=O)ON=C(N)c1cccc(C(F)(F)F)c1 (4 µM),B-score,[1],13.4
same,B-score,[2],2.4
N#Cc1ccc(Sc2cccs2)c([N+](=O)[O-])c1 (4 µM),B-score,[1],-2.02
same,B-score,[2],-3.81
N#Cc1ccc(NCc2ccccc2Cl)cc1 (4 µM),B-score,[1],-8.09
same,B-score,[2],-3.17
CC(C)(C)S(=O)(=O)c1sc(C=O)cc1C=O (4 µM),B-score,[1],-0.674
same,B-score,[2],-5.43
CN1CCN(Cc2cc(Br)c(O)c3ncccc23)CC1 (4 µM),B-score,[1],10.7
same,B-score,[2],4.33
CCCOc1ccccc1-c1nc2[nH]nnc2c(=O)[nH]1 [Zaprinast] (4 µM),B-score,[1],2.77
same,B-score,[2],6.39
O=[N+]([O-])c1ccc(Oc2ccc(-c3nnco3)cc2)c2ccncc12 (4 µM),B-score,[1],-2.63
same,B-score,[2],-3.87
